Source: paper PMC4336329 (PLoS ONE, 2015)
In all, about 310,000 compounds went through this assay and about 2,200 (0.71%) showed an effect of 50% or more. The effect is printed as a negative number. The list shows a part of the results.

Molecular target: human ether-à-go-go-related gene (hERG) potassium channel (human, UniProt Q12809)
Experiment: primary screen, population patch clamp on CHO cells stably expressing hERG

Sequence of human ether-à-go-go-related gene (hERG) potassium channel (Q12809 whole entry, looked up): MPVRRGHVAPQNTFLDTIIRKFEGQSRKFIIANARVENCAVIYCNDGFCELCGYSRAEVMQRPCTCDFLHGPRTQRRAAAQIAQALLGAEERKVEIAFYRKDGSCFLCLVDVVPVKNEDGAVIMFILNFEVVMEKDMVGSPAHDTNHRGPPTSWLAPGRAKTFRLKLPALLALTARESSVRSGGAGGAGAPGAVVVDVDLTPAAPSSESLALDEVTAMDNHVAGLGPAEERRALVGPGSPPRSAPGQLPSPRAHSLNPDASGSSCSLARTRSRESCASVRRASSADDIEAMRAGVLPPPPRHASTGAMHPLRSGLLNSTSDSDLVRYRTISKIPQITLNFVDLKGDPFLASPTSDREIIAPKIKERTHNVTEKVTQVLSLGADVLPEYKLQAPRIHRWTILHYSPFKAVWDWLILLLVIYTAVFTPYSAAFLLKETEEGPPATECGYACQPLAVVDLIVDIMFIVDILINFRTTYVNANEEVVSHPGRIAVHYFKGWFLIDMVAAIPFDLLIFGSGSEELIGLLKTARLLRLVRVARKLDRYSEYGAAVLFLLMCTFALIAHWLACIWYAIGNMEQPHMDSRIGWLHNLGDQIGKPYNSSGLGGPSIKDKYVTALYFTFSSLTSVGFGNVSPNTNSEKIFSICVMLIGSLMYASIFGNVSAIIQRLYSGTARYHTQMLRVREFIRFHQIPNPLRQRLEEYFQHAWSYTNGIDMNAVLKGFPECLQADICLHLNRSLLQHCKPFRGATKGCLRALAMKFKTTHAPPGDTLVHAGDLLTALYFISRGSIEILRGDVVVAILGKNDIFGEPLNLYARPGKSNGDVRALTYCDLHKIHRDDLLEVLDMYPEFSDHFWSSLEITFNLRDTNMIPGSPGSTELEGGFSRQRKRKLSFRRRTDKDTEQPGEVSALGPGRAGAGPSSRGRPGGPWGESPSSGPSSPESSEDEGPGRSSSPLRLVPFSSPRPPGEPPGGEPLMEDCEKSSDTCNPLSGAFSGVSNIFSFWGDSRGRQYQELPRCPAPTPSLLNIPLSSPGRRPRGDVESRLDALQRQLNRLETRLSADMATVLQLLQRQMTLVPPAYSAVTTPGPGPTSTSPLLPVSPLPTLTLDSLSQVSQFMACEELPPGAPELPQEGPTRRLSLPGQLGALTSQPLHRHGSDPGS

| SMILES | hERG current change (%, negative = inhibition) at 1uM |
| --- | --- |
| CCOC(=O)c1c(N2C(=O)Nc3cc(Cl)c(Cl)cc3N2O)sc2c1CCCCC2 | 16.3% |
| Cc1ccccc1/C(N)=N/OC(=O)c1ccc(F)cc1 | 9.14% |
| O=C(Nc1nccs1)C(c1ccccc1)N1CCCCC1 (centres unmarked) | 7.57% |
| O=C(Nc1ccc(N2CCCCCC2)cc1)c1ccc[nH]1 | 4.22% |
| CCN(CC(=O)NC(C)(C)C)C(=O)C(c1ccccc1)c1ccccc1 | 10% |
| CCOC(=O)c1cn(Cc2ccc(C)cc2)c2cc(F)ccc2c1=O | 12.5% |
| Cc1ccccc1-c1nc(CS(=O)(=O)CC(=O)NCCCN2CCCC2=O)c(C)o1 | 6.98% |
| O=C(NCCCn1ccnc1)c1cn(-c2ccccc2)nc1-c1ccccc1 | -4.78% |
| Cc1ccc(-c2cc(C(F)(F)F)n3nc(C(=O)Nc4ccon4)cc3n2)cc1C | 7.99% |
| O=[N+]([O-])c1cc(F)c(N2CCCC2)cc1N1CCNCC1 | 0.622% |
| CCCN(Cc1ccccc1)C(=S)NC(=O)c1ccccc1[N+](=O)[O-] | 13% |
| O=C(Nc1cc2c(oc1=O)CCCC2=O)c1ccc(Cl)cc1 | 0.979% |
| CC(C)(C)OC(=O)N1CC=C2C(C#N)=C(N)C(C#N)(C#N)C(c3cccs3)C2C1 (centres unmarked) | 13.4% |
| O=C(Nc1ccccc1C(=O)N1CCN(Cc2ccccc2)CC1)c1ccccn1 | 5.23% |
| O=C(COc1ccccc1[N+](=O)[O-])N1CCN(c2ccccn2)CC1 | 12.5% |
| Cc1cc2nc3c(nc2cc1C)C1(C(=O)O)CCC3(C)C1(C)C (centres unmarked) | 2.9% |
| Cc1ccc(S(=O)(=O)N2CCOCC2)cc1C(=O)Nc1c(C)n(C)n(-c2ccccc2)c1=O | 6.42% |
| CCc1ccc(C2=NN(C(=O)CCC(=O)O)C(c3cccs3)C2)cc1 (centres unmarked) | 16.5% |
| Cl.O=C(Nc1ncc([N+](=O)[O-])s1)c1cccs1 | 16.1% |
| CC(=O)Oc1cccc(C(=O)Nc2c[nH]c(=O)[nH]c2=O)c1 | 13.8% |
| Cc1ccccc1-c1cccc(CN2CCN(C)C(CCO)C2)c1 (centres unmarked) | 14.4% |
| CCc1nnc(NC(=O)CSc2nccn2-c2cccc(C)c2)s1 | 12.3% |

| SMILES | hERG current change (%, negative = inhibition) at 1uM |
| --- | --- |
| COc1ccc(S(=O)(=O)N2CCC(C(=O)Nc3cc(Cl)ccc3N3CCOCC3)CC2)cc1OC | 11.9% |
| O=C1/C(=C\c2ccc3c(c2)OCO3)CCC/C1=C/c1ccc2c(c1)OCO2 | 8.52% |
| COC(=O)c1cccc(Cn2nc(C)c([N+](=O)[O-])c2C)c1 | 4.85% |
| Cc1cc([N+](=O)[O-])cc2c1NC(=O)C2(O)N1CCCC(C)C1 (centres unmarked) | 10.9% |
| Cc1cccc(NS(=O)(=O)c2coc(C(N)=O)c2)c1C | 7.84% |
| CC(=O)Nc1ccc(-n2nnnc2SCC(=O)NC2CCCC2)cc1 | 9.86% |
| C/C(=N\N1CCN(c2ccc(Cl)cc2)CC1)c1cccc([N+](=O)[O-])c1 | -2.33% |
| CS(=O)(=O)Nc1cccc(C2=NN(S(=O)(=O)c3ccccc3)C(c3cccs3)C2)c1 (centres unmarked) | 7.1% |
| CN(C(=O)COC(=O)COc1ccccc1F)C1CCS(=O)(=O)C1 (centres unmarked) | 11.9% |
| CCCN(C(=O)COC(=O)c1cc(CC)c(C)s1)c1c(N)n(Cc2ccccc2)c(=O)[nH]c1=O | 15% |
| CC(=O)Oc1ccc2occ(C(=O)c3cccs3)c2c1 | 7.04% |
| COc1ccc(NC(=O)C2CC(c3c(F)cccc3Cl)=NO2)cc1OC (centres unmarked) | 12.2% |
| COC(=O)c1ccc(CN2CCc3ccccc32)cc1 | 16.2% |
| CC(Sc1nnc(-c2ccco2)n1N)C(=O)NCC1CCCO1 (centres unmarked) | 12.8% |
| COC(=O)c1ccccc1NC(=O)COC(=O)c1cccnc1 | 17.2% |
| COCCNC(=O)C(=O)NNS(=O)(=O)c1ccc(Cl)cc1 | 0.519% |
| COc1ccccc1CCC(=O)Nc1cccc(S(=O)(=O)N2CCOCC2)c1 | 7.47% |
| Nc1n[nH]c(N)c1N=Nc1cccc(C(F)(F)F)c1 | 13.3% |
| O=C(CN1C(=O)N/C(=C\c2ccccc2OCc2ccc(C(=O)O)cc2)C1=O)Nc1ccc(F)cc1 | 13.8% |
| CN(C(=O)CSc1nc2ccccc2c(=O)n1-c1ccc(F)cc1)C1CCS(=O)(=O)C1 (centres unmarked) | 5.93% |
| COc1ccc(-c2cc(N3C(=O)Nc4ccccc4N3O)n[nH]2)cc1 | 5.52% |
| CCOC(=O)C1CCCN(C2CCN(Cc3nc(Cc4ccccc4)no3)CC2)C1 (centres unmarked) | -12.1% |

| SMILES | hERG current change (%, negative = inhibition) at 1uM |
| --- | --- |
| Cc1ccc(-c2csc(Nc3ccc(S(N)(=O)=O)cc3)n2)o1 | 15.5% |
| COC(=O)C1=C(C(=O)OC)[C@@H]2N(C)c3ccc(OC)cc3[C@@]23C[C@@H](C(=O)OC)N(C(=O)NCCBr)C3=N1 | 11.5% |
| O=C(Nc1c2c(nn1-c1ccc(F)cc1)CS(=O)(=O)C2)C1CCCC1 | 18.7% |
| Cc1nn(Cc2ccc(C(=O)Nc3nccs3)cc2)c(C)c1Cl | 19.6% |
| CCN(c1ccccc1)S(=O)(=O)c1ccc(Cl)c(C(=O)O)c1 | 1.2% |
| CC(C(=O)Nc1ccc(Br)cc1)N(C)CC(=O)NCc1ccco1 (centres unmarked) | -10.3% |
| CCN(C(=O)CSc1nnc(Nc2cccc(C)c2C)s1)C1CCS(=O)(=O)C1 (centres unmarked) | -5.06% |
| CCCc1nc2ccccc2n1CCOC | 17.6% |
| COC(=O)CN1C(=S)N(c2ccc(F)cc2)C(=O)C1CC(=O)Nc1ccc(OC)cc1 (centres unmarked) | 7.75% |
| O=C(Nc1cccc(-c2cnc3ccccc3n2)c1)c1ccc(Cl)cc1 | 8.28% |
| Cc1ccc(C(=O)CN(C(=O)c2ccc(Cl)c(Cl)c2)N2C(=O)C3CCCCC3C2=O)cc1C (centres unmarked) | 4.65% |
| O=C1Cn2c(nc3ccccc32)N1c1cccc(C(F)(F)F)c1 | -11.6% |
| Oc1oc(-c2ccco2)nc1C=Nc1ccccc1 | -3.71% |
| Cc1ccccc1C(=O)Nc1cccc(NC(=O)c2ccc(F)cc2)c1 | 8.07% |
| CCOc1ccccc1N(CC(=O)N/N=C/c1cc(Br)ccc1OC)S(C)(=O)=O | 15.8% |
| CN(Cc1ccccc1)S(=O)(=O)c1ccc(Cl)c(C(=O)OCC(N)=O)c1 | 8.64% |
| O=C1c2[nH]nc(-c3ccccc3O)c2C(c2ccccc2F)N1Cc1ccco1 (centres unmarked) | 10.2% |
| O=C(Nc1ccc2oc(-c3ccc4ccccc4c3)nc2c1)c1cccs1 | -8% |
| COc1cc(-c2nc3cnccn3c2Nc2ccc3c(c2)OCCO3)ccc1O | 4.76% |
| CNC(=S)N/N=C1\C2CN3CCN(C2)CC1(c1ccccc1)C3 | 8.25% |
| O=C(Cn1c(=O)oc2ccccc21)Nc1ccccc1N1CCOCC1 | 16.9% |
| CC1CCN(c2nc(/C=C/c3ccccc3)nc3ccccc23)CC1 | 4.11% |

| SMILES | hERG current change (%, negative = inhibition) at 1uM |
| --- | --- |
| CC(=O)c1cc2c(cc1NC(=O)CN1CCN(c3cccc(C(F)(F)F)c3)CC1)OCO2.Cl | 9.11% |
| N#C/C(=C\c1ccc2c(c1)OCO2)C(N)=S | 12.1% |
| Cc1ccc(OCc2nc(-c3cccs3)no2)c([N+](=O)[O-])c1 | 9.49% |
| CC(C)(C)C(=O)NC1CC2CCCC(C1)N2C(=O)Nc1cccc(Cl)c1 (centres unmarked) | 15.7% |
| CCOC(=O)c1ccccc1NC(=O)CSc1nc2ccccc2n1CC(=O)N1CCCC1 | -8.76% |
| O=C(NCc1ccc(Cl)cc1)c1cc2c(s1)CS(=O)(=O)C2 | 0.729% |
| CCc1ccc(OCCNC(=O)OCc2ccccc2)cc1 | -1.74% |
| COc1ccc(N(CC(=O)N2c3ccccc3CC2C)S(=O)(=O)c2c(C)nn(C)c2C)cc1 (centres unmarked) | 9.21% |
| CCOc1cc([N+](=O)[O-])c2nc(N)sc2c1 | 8.66% |
| COC(=O)[C@H](Cc1ccccc1)NC(=O)c1ccc2ccccc2n1 | 0.182% |
| CN(C(=O)COC(=O)c1nc(-c2ccccc2)n(-c2ccccc2)n1)C1CCS(=O)(=O)C1 (centres unmarked) | 13.3% |
| CCOC(=O)Cc1[nH]nc2c1C(c1ccoc1)C(C#N)=C(N)O2 (centres unmarked) | -5.52% |
| CC[n+]1c(C)cc(C)n1-c1ccccc1.[I-] | -5.8% |
| O=C(CSc1nnc(-c2ccccc2)n1-c1ccc(Cl)cc1)N/N=C/c1ccccc1C(=O)O | 10.2% |
| COc1ccc(CCN2CNc3c(c(=O)n(C)c(=O)n3C)C2)cc1OC | 15.4% |
| Cc1n[nH]c(=O)c2c(NC(=O)CSc3cc(Cl)ccc3Cl)oc(C)c12 | 3.6% |
| O=C(NCCN1CCOCC1)/C(=C\c1ccccc1Cl)NC(=O)c1ccccc1 | 3.33% |
| Cc1cc(C(=O)CN2C(=O)c3ccccc3S2(=O)=O)c(C)n1C(C)C | 4.51% |
| O=C(NC1CCCCCCC1)C1CCN(S(=O)(=O)N2CCCC2)CC1 | 7.12% |
| Cc1ccc(C)c(OCc2nc3ccccc3[nH]2)c1 | 5.22% |
